In ChEMBL document CHEMBL4888484, “Replenishing the malaria drug discovery pipeline: Screening and hit evaluation of the MMV Hit Generation Library 1 (HGL1) against asexual blood stage Plasmodium falciparum ,using a nano luciferase reporter read-out” (2022):
Among all 150,000 compounds or so, about 540 (0.36%) showed an effect of 50% or more. The list shows a part of the results.

Each molecule was assayed on Plasmodium falciparum (assay: Primary screen in NF54 nanoGlo assay, in single point, at 2uM, 72h; a lower Z score goes with more inhibition). Conditions: timepoint 72 hour.
Assay type: functional, Erythrocyte

In order of falling “% Inhibition” value:
1. CCN(CC)CCN(C(=O)c1ccc(S(=O)(=O)N2CCCCCC2)cc1)c1nc2c(OC)cccc2s1  17%
2. Cn1cc(CN2CCN3C(=O)N(C4CCOCC4)C[C@H]3C2)cn1  16%
3. O=C(Nc1ccncc1)N[C@H]1CC(=O)N(c2ccccc2)C1  10%
4. CC[C@H]1CN(CC)CCN1C(=O)c1cnc(C2OCCO2)s1  7%
5. NC(=O)CN(CCC1CCCCC1)C(=O)c1ccncc1  3%
6. CCCn1c(=O)c2sccc2n(CC(=O)NC2CCCCC2)c1=O  2%
7. CCOCC(=O)Nc1ccc(C)nc1C  0%
8. CC1CC(c2ccccc2)CN1S(=O)(=O)Cc1ccc(F)cc1C#N (stereo unspecified)  0%
9. FC(F)(F)Cn1nc(-c2ccco2)nc1CC1CCNCC1  -1%
10. COc1ccc(-c2nccn3cc(C(=O)NCc4c(C)nn(C)c4C)nc23)cc1  -5%
11. COc1ccc2oc(CNC(=O)[C@H]3C[C@@H]4C=C[C@H]3C4)nc2c1  -6%
12. CC(C)c1ccc(NC(=O)[C@H]2Nc3cc(F)ccc3S(=O)(=O)N2)cc1  -8%
13. CC(C)[C@@H]1CN(C(=O)c2ccc(O)cn2)CCCN1CC1CC1  -8%
14. Cc1ccc(N2CCN(C(=O)c3ccc4c(c3)N(C)[C@@H]3CCCCN3C4=O)CC2)cc1  -10%
15. CC(c1ccccc1)C(C)(O)C(=O)N1CCCC(c2nc(N(C)C)no2)C1 (stereo unspecified)  -11%
16. CCOCC(=O)NC[C@H](O)c1ccccc1F  -11%
17. CC(C)(Oc1ccc(F)cc1)c1nc(-c2cnccn2)no1  -12%
18. CC[C@H]1COCCN1S(=O)(=O)N1CCCCCC1  -12%
19. O=C(COc1ccccc1O)NC(c1ccc2c(c1)CCO2)[C@H]1C[C@@H](O)C1 (stereo partly specified)  -13%
20. O=C(c1n[nH]c2ccccc12)N1CCCC1  -14%
21. Cc1ccccc1-c1nc2n(n1)C1(CCCCC1)[C@@H]1CCCC[C@@H]1N2C(=O)C(C)C  -19%
22. CCS(=O)(=O)C1CN(C(=O)c2ccc(F)cc2O)C1  -21%
23. COc1ccc(CNC(=O)N2C3CCC2CC(n2cccn2)C3)cc1 (stereo unspecified)  -21%

In order of falling Z score:
1. COc1ccc(CNC(=O)N2C3CCC2CC(n2cccn2)C3)cc1 (stereo unspecified)  2.74
2. O=C(c1n[nH]c2ccccc12)N1CCCC1  2.33
3. CCS(=O)(=O)C1CN(C(=O)c2ccc(F)cc2O)C1  1.96
4. O=C(COc1ccccc1O)NC(c1ccc2c(c1)CCO2)[C@H]1C[C@@H](O)C1 (stereo partly specified)  1.74
5. CC(c1ccccc1)C(C)(O)C(=O)N1CCCC(c2nc(N(C)C)no2)C1 (stereo unspecified)  1.73
6. Cc1ccc(N2CCN(C(=O)c3ccc4c(c3)N(C)[C@@H]3CCCCN3C4=O)CC2)cc1  1.73
7. Cc1ccccc1-c1nc2n(n1)C1(CCCCC1)[C@@H]1CCCC[C@@H]1N2C(=O)C(C)C  1.72
8. CCOCC(=O)NC[C@H](O)c1ccccc1F  1.7
9. CC(C)(Oc1ccc(F)cc1)c1nc(-c2cnccn2)no1  1.62
10. CC(C)[C@@H]1CN(C(=O)c2ccc(O)cn2)CCCN1CC1CC1  1.18
11. CC[C@H]1COCCN1S(=O)(=O)N1CCCCCC1  1.08
12. CC(C)c1ccc(NC(=O)[C@H]2Nc3cc(F)ccc3S(=O)(=O)N2)cc1  0.95
13. COc1ccc(-c2nccn3cc(C(=O)NCc4c(C)nn(C)c4C)nc23)cc1  0.91
14. COc1ccc2oc(CNC(=O)[C@H]3C[C@@H]4C=C[C@H]3C4)nc2c1  0.87
15. FC(F)(F)Cn1nc(-c2ccco2)nc1CC1CCNCC1  0.12
16. CCOCC(=O)Nc1ccc(C)nc1C  0.09
17. CC1CC(c2ccccc2)CN1S(=O)(=O)Cc1ccc(F)cc1C#N (stereo unspecified)  -0.05
18. CCCn1c(=O)c2sccc2n(CC(=O)NC2CCCCC2)c1=O  -0.27
19. NC(=O)CN(CCC1CCCCC1)C(=O)c1ccncc1  -0.55
20. CC[C@H]1CN(CC)CCN1C(=O)c1cnc(C2OCCO2)s1  -0.78
21. O=C(Nc1ccncc1)N[C@H]1CC(=O)N(c2ccccc2)C1  -1.25
22. Cn1cc(CN2CCN3C(=O)N(C4CCOCC4)C[C@H]3C2)cn1  -1.86
23. CCN(CC)CCN(C(=O)c1ccc(S(=O)(=O)N2CCCCCC2)cc1)c1nc2c(OC)cccc2s1  -2.13
